Assay results from article PMC6919601, “Identification of Plasmodium dipeptidyl aminopeptidase allosteric inhibitors by high throughput screening” (PLoS ONE, 2019).
In all, about 110,000 compounds went through this assay and about 230 (0.21%) showed an effect of 50% or more. This is one part of the list.

Biological target: DPAP1 (Plasmodium falciparum, UniProt Q8IIJ9)
Test: primary screen, percent inhibition; read by cleavage of a fluorogenic dipeptide substrate; higher = more effect of the substance
Parameters: species or system P. falciparum D10 trophozoite lysates; single well
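Further: 30 min substrate incubation versus DMSO and 10 µM JCP410 controls.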

DPAP1, sequence (Q8IIJ9 whole entry, looked up): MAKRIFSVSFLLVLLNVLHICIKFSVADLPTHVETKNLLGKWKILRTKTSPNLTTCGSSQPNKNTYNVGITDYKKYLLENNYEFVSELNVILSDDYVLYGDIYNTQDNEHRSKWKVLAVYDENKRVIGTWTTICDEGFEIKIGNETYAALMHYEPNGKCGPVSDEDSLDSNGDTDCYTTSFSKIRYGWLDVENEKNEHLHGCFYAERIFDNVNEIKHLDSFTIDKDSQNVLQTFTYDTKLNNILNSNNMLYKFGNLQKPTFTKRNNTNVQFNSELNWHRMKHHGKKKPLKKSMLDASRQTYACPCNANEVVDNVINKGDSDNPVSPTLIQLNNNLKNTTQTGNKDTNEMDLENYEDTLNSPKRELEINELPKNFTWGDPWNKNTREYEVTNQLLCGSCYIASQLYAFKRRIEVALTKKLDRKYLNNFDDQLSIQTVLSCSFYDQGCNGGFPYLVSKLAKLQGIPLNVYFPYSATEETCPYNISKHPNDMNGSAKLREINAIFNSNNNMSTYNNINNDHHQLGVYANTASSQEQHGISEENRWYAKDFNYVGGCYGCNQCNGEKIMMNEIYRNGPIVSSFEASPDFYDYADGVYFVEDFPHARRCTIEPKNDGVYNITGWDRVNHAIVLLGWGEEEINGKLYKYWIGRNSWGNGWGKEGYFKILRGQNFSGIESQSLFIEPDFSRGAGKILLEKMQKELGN

Row | SMILES | % Inhibition @ 10 uM [%]
1 | CCCCCC(=O)Nc1ccc(S(=O)(=O)NC(C)=O)cc1 | -11.6
2 | CCOc1ccccc1C1C2=C(O)CCCC2=NC(C)=C1C(=O)OC1CCCC1 (centres unmarked) | 0.736
3 | COc1cc(CNc2ccccc2SC)cc(OC)c1 | 1.17
4 | CCS(=O)(=O)c1nc(S(=O)(=O)c2ccc(Cl)cc2)c(NCCN2CCOCC2)s1 | 1.15
5 | Cc1cc(NS(=O)(=O)c2ccc(NC(=O)c3ccc(Cl)cc3Cl)cc2)no1 | -9.31
6 | CCc1[nH]nc2c1C(c1cccc(OCc3ccccc3)c1)C(C#N)=C(N)O2 (centres unmarked) | -4.03
7 | CCN(CC)CC#CC(C)(OC(C)=O)C(C)C (centres unmarked) | 6.18
8 | CC(Oc1ccc(Cl)cc1Cl)C(=O)Nc1ccc(CC#N)cc1 (centres unmarked) | 2.49
9 | COc1ccc(C2CC3=Nc4ccccc4NC(c4ccncc4)C3=C(O)C2)cc1 (centres unmarked) | -4.76
10 | CCCN(CCC)C1=N/C(=C\c2ccco2)C(=O)N1c1ccccc1 | -12.7
11 | O=C(NCCC1=CCCCC1)c1nnc(O)c2ccccc12 | 5.88
12 | Cc1ccc(-c2csc(/C(C#N)=C\C=C\c3ccc([N+](=O)[O-])cc3)n2)c(C)c1 | 1.91
13 | Cc1noc2ncnc(NC(C)CCc3ccccc3)c12 (centres unmarked) | -8.54
14 | CC(=O)c1c(O)cc(C)o/c1=N\c1ccc(F)cc1 | -0.736
15 | CCOCCCNC(=O)c1oc2ccc3nc(N(C)C)sc3c2c1C | 5.56
16 | COc1ccc(OC)c(CCNC(=O)CCn2ccc3cc(S(=O)(=O)N4CCCC4)ccc32)c1 | 8.89
17 | CCCCCCSc1nc(O)cc(=O)n1-c1ccccc1 | 9.67
18 | O=C(O)CSc1nc2ccccc2[nH]1 | -3.65
19 | CC(C)Oc1ccc(C(=O)CCNC(C(=O)O)C(C)C)cc1 (centres unmarked) | 59.7
20 | CCSCCO/C(O)=C1\C(C)=NC2=C(C(=O)CC(c3cccc(OC)c3)C2)C1c1ccc(C)o1 (centres unmarked) | 3.87
21 | COC(=O)c1ccc(C2Nc3ccc4ccccc4c3C3=C2C(=O)CC(C)(C)C3)cc1 (centres unmarked) | -0.414
22 | COc1ccc(S(=O)(=O)NCc2cccnc2)c(C)c1C | 1.72
23 | COc1cccc(-c2nc(CS(=O)(=O)CC(=O)NCc3cccs3)c(C)o2)c1 | -0.138
24 | CC1CCCCN1C(=O)c1ccccc1NC(=O)c1ccco1 (centres unmarked) | 2.36
25 | Clc1ccc(-c2nc3c4c5c(sc4ncn3n2)CCCC5)c(Cl)c1 | -4.32

Row | SMILES | % Inhibition @ 10 uM [%]
26 | O=C(CN1C(=O)c2cccc3cccc1c23)Nc1ccc2ccccc2c1 | 5.54
27 | CC1(C)OC(=O)C(=Cc2ccc(Br)o2)C(=O)O1 | 4.86
28 | CCOC(=O)c1cc(-c2ccccc2)sc1NC(=O)C1C2CCC(O2)C1C(=O)O (centres unmarked) | -0.318
29 | Cc1ccc(S(=O)(=O)CCc2nnc(N)s2)cc1 | -4.43
30 | CCOC(=O)c1cnc2c(-c3cccc(Br)c3)cnn2c1C | -2.14
31 | Cn1nc(C(F)(F)F)c2cc(C(=O)N[C@@H](Cc3c(F)cccc3F)C(=O)NCC#N)sc21 | 2.87
32 | CCN(CC)C(=O)c1cc(-c2ccc(OC)c(OC)c2)on1 | -5.09
33 | COc1ccc(OC)c(CC2(NC(=O)c3ccccc3)N=C3C=CC=CN3C2=O)c1 (centres unmarked) | -0.85
34 | Cc1nc2ccccc2cc1C(=O)Nc1ccccc1Cl | -2.74
35 | Cn1c(=O)c2c(-c3ccccc3Br)n(-c3cccc4cccnc34)cc2n(C)c1=O | 2.41
36 | C(=C\c1ccccc1)/CN1CCN(Cc2ccoc2)CC1 | -0.828
37 | Cc1cc(OCc2nc(-c3ccccc3)no2)ccc1Br | 3.79
38 | CCc1ccc(-n2c(C)nc3cc(C(=O)NC(C)CC)ccc32)cc1 (centres unmarked) | -0.256
39 | CC(O)CN(CCCc1ccccc1)CC(C)O (centres unmarked) | 5.01
40 | COc1ccc(/N=c2\sc(C)c(-c3ccc(Cl)cc3)n2CCO)cc1 | 1.02
41 | CCOc1cc(C2c3c(oc4ccccc4c3=O)C(=O)N2c2nnc(C)s2)ccc1O (centres unmarked) | -2.92
42 | CCCn1c(CCCNC(=O)c2cccc(C)c2)nc2ccccc21 | 2.83
43 | Cc1cccc(-c2nnc(NC(=O)C(F)(F)F)s2)c1 | -5.7
44 | CC1=C(CCN2CCN(C/C=C/c3ccccc3)CC2)C(C)(C)CCC1 | -1.41
45 | O=C(CCC(=O)Oc1ccccc1F)Nc1ccc(Cl)cc1 | 1.42
46 | CC1CCN(c2c(NCC3CCC(C(=O)Nc4ccccn4)CC3)c(=O)c2=O)CC1 (centres unmarked) | -0.659
47 | Cc1ccc(C)n1-c1ccc(SCC(=O)O)cc1 | 4.55
48 | O=C(CSc1c2c(nc3ccc(Cl)cc13)CCCC2)NCc1ccccn1 | -6.89
49 | O=C(CN1C(=O)c2ccccc2C1=O)N1CCN(C(=O)c2ccccc2)CC1 | -8.36
50 | Cc1ccc(S(=O)(=O)N2CCCN(S(=O)(=O)c3ccc(C)cc3C)CC2)c(C)c1 | 13.8
